Source: patent publication US6130250A, “Veterinary use of a pleuromutilin derivative” (priority 1996, dated 2000)
Counter-ions that a name gives are not always drawn. Like-named read-outs stand apart in the source and are kept apart here.

System: M. hyopneumoniae
Assay: Development of resistance (habituation study), MIC before and after passages
Type: cell-based, Mycoplasma hyopneumoniae
Details: for MIC: Mesomycoplasma hyopneumoniae
Protocol: Mycoplasma hyopneumoniae reference strain NCTC 10110 (obtained from the National Collection of Type Cultures, London, UK) and a recent field isolate (MEVT G23), are grown aerobically at 36° C. in Mycoplasma glucose broth containing phenol red until an acid colour change occurs. After addition of sterile glycerol (5% v/v) the cultures are dispensed in 1 ml aliquots and frozen at -70° C. These cultures are used to initiate further broth cultures which are titrated to obtain the number of colour changing units (ccu) in microtitre plates after incubation (36° C.). Replication allows challenge of antibiotic dilutions with predetermined numbers of ccu in minimal inhibitory concentration (MIC) tests and in the primary passage in habituation studies.
A commercially available medium (Mycopiasma Experience Ltd.) containing glucose and phenol red (MEGB) is used at pH 7.6.
Stock test compound solutions are prepared at 1000 μg/ml in deionized water. After vortexing, the solutions are sterilized by filtration through 0.2μ pore size membrane filters (Sartorius Minisart, N). For use in the MIC tests the stock solutions are diluted in mycoplasma broth to double the final concentrations required. In habituation studies the stock solutions are dispensed in 1 ml aliquots and frozen at -20° C. These are thawed and used at 5 day-7 day intervals to prepare ranges of concentrations of drug (doubling series) in MEGB, in 1.9 ml aliquots, covering the MICs against both strains of M. hyopneumoniae. Oxytetracycline hydrochloride is prepared fresh on each occasion. The dilution ranges are gradually changed from passage to passage to allow for the development of resistance in the mycoplasmas.
MIC tests are carried out by the method of Tanner & Wu, Avian Diseases 36 (1992) 714-717 before carrying out the habituation study (below) and after the 10th passages 0.1 ml aliquots of the compound dilution are mixed with 0.1 ml aliquots of the challenge inocula, containing between 10^3 and 10^5 colour changing units (ccu) per ml, in microtitre wells. Each microtitre plate contains uninoculated medium, medium at pH 6.8 (end-point-control) and drug-free inoculated challenge controls. All plates are sealed and incubated aerobically at 36° C. MICs are recorded when the colour change in the challenge control wells match the pH 6.8 control (orange-yellow). The MIC is the lowest concentration to show no colour change.
Habituation study: In the primary passage experiment, 1.9 ml volumes of antibiotic solutions at concentrations covering the MIC of the M. hyopneumoniae strain under test, are inoculated with 0.1 ml of broth culture containing between 10^3 ccu/ml to 10^5 ccu/ml. A growth control consisting of drug-free broth inoculated with M. hyopneumoniae and an uninoculated medium control are included in each passage experiment. After 7 days incubation (36° C.) the two highest concentrations of drug-containing broth showing an acid colour change are pooled and used to inoculate a fresh series of drug dilutions in mycoplasma broth (0.1 ml culture into 1.9 ml drug-containing broth). This process is repeated every 5-7 days for up to 10 passages. When the mycoplasma strains become resistant to particular antibiotics, or at the 10th passage, each strain is grown once more in drug-containing broth and the MICs determined.

[1] = NCTC10110, read-out: Pre-passage MIC

Compound | resistance development in words (M. hyopneumoniae strains, in vitro passages) | MIC (NCTC10110, read-out: Post-passage MIC) | MIC [1] | MIC (read-out: Post-passage MIC) | MIC (read-out: Pre-passage MIC) | Resistance increase (NCTC 10110, after 8 passages) | passages within which marked resistance developed (field isolate) | Resistance increase (field isolate, after 8 passages) | MIC (NCTC10110, read-out: Post-passage MIC up to P10/P11) | MIC (read-out: Post-passage MIC up to P10/P11) | Post-passage MIC up to P10/P11 (NCTC 10110) | Resistance increase (NCTC 10110, up to P10/P11) | Post-passage MIC up to P10/P11 (field isolate) | Resistance increase (field isolate, up to P10/P11)
CCC1OC(=O)CC(O)C(C)C(OC2OC(C)C(OC3CC(C)(O)C(O)C(C)O3)C(N(C)C)C2O)C(CC=O)CC(C)C(=O)C=CC(C)=CC1COC1OC(C)C(O)C(OC)C1OC (stereo not shown) [Tylosin tartrate] | marked resistance developed | > 500 µg/mL | 0.25 µg/mL | 62.5 µg/mL | 0.125 µg/mL | > 2000 fold | ≤ 8 passages | 500 fold | – | – | – | – | – | –
CN(C)C1C(=O)C(C(N)=O)=C(O)C2(O)C(=O)C3=C(O)c4c(O)cccc4C(C)(O)C3C(O)C12 (stereo not shown) [Oxytetracycline hydrochloride] | – | – | 0.25 µg/mL | – | 0.25 µg/mL | – | – | – | 1 µg/mL | 1 µg/mL | 1 µg/mL | 4 fold | 1 µg/mL | 4 fold
